{
  "source": "PubChem BioAssay AID686978",
  "about": "(National Center for Advancing Translational Sciences (NCATS), 2013)",
  "note": "Where “and” joins values, the source holds several entries; their conditions need not be identical. Identical values can stand only once. In all, about 420,000 compounds went through this assay and about 64,000 (15%) were called active. This list was built around the results that the source calls inconclusive (neither active nor inactive); the mix of calls is not that of the screen. Calls follow the shape of the dose curve; as a rule, active = well fitted inhibition curve with a large enough effect; inconclusive = small, poorly fitted or top-dose-only effect; inactive = flat fitted curve, though single readings scatter. Potencies beside an inconclusive call are fits to weak or partial responses and may not hold up. % is scaled to controls: 0 for no effect and ±100 for the full control effect; potency is read from the fitted curve at half-maximal effect; tags tell the direction and shape of the fitted curve.",
  "data": [
    {"test": "qHTS for Inhibitors of human tyrosyl-DNA phosphodiesterase 1 (TDP1): qHTS in cells in absence of CPT; also: nearly all actives have a fitted effect of over 55% in size", "conditions": "DT40 Tdp1-/- hTDP1 cells, no CPT, ATP luminescence, 48 h; activity change, negative = growth inhibition: at 46.2 µM (top of the series) unless noted", "how_it_was_run": "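A cellular qHTS used chicken DT40 cells lacking endogenous Tdp1 but carrying stably transfected human TDP1. Compounds were applied without camptothecin, and cell growth kinetics were judged by ATP-dependent luminescence after ≥48 hr.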", "values": [
      {"smiles": "O=c1[nH]nc(-c2ccc(NCCO)c([N+](=O)[O-])c2)c2ccccc12", "Potency": "inconclusive: 16.4 µM [inhibitor, single point]"},
      {"smiles": "CCN(CC)CCNC(=O)c1cn(C)c2ccc(S(=O)(=O)N(C)C3CCCCC3)cc2c1=O", "activity change, negative = growth inhibition": "inactive: -14.4%"},
      {"smiles": "COC(=O)C[C@H]1c2cc(C(F)(F)F)ccc2S(=O)(=O)N1C1CCCC1", "Potency": "inconclusive: 20 µM [inhibitor, single point] and inconclusive: 16.4 µM [inhibitor, single point]"},
      {"smiles": "CCOc1ccc(CNC(=O)c2ccc(NC(=O)c3nsc4ccccc34)cc2)cc1", "activity change, negative = growth inhibition": "inactive: -16.2%"},
      {"smiles": "Cc1c(Br)c([N+](=O)[O-])nn1CC(=O)Nc1sc2c(c1C(=O)OC(C)C)CCC(C)C2", "note": "(stereo not given)", "Potency": "inconclusive: 18.4 µM [inhibitor, single point]"},
      {"smiles": "O=C(NNC(=O)C12CC3CC(CC(C3)C1)C2)c1cnccn1", "Potency": "inconclusive: 29.1 µM [inhibitor, single point]"},
      {"smiles": "Cc1sc(NC(=O)C2CSC3(C)CCC(=O)N23)nc1-c1ccc(F)cc1", "note": "(stereo not given)", "Potency": "active: 18.4 µM"},
      {"smiles": "Cc1ccc(NC2CCCCC2NS(=O)(=O)c2ccc(Cl)cc2)cc1", "note": "(stereo not given)", "Potency": "inconclusive: 11.6 µM [inhibitor, partial curve]"},
      {"smiles": "CN(C(=O)CSc1nc2ccccc2n1CC(=O)NCc1ccc(F)cc1)c1ccc(F)cc1", "Potency": "inconclusive: 0.291 µM [inhibitor, full curve, poor fit]"},
      {"smiles": "CCOC(=O)Cn1cc2c(c1-c1ccc(Cl)cc1)c(=O)n(C)c(=O)n2C", "Potency": "inconclusive: 18.4 µM [inhibitor, single point]"},
      {"smiles": "O=c1c(-c2ccc3c(c2)OCCO3)coc2c(CN3CCOCC3)c(O)ccc12", "Potency": "inconclusive: 14.6 µM [inhibitor, partial curve, poor fit]"},
      {"smiles": "COC(=O)N/N=C/c1cn(CCOc2ccccc2OC)c2ccccc12", "activity change, negative = growth inhibition": "inactive: -13.6%"},
      {"smiles": "O=C(O)CSc1nnc(-c2ccc3c(c2)OCO3)o1", "activity change, negative = growth inhibition": "inactive: 1.07%"},
      {"smiles": "CCC(c1nnnn1-c1ccc2c(c1)OCCO2)N1CCN(c2ccccc2OC)CC1", "note": "(stereo not given)", "Potency": "inconclusive: 18.4 µM [inhibitor, single point]"},
      {"smiles": "COc1cc(-c2cc3nc(NCCOc4ccccc4)ccn3n2)cc(OC)c1OC", "Potency": "active: 2.31 µM"},
      {"smiles": "CCN1CCN(C(=S)Nc2ccc(Cl)cc2Cl)CC1", "Potency": "inconclusive: 23.1 µM [inhibitor, single point]"},
      {"smiles": "CCOc1ccc(NC(=O)CN(C)C(=O)CCN2C(=O)C3CC=CCC3C2=O)cc1OCC", "note": "(stereo not given)", "activity change, negative = growth inhibition": "inactive: 8.34%"},
      {"smiles": "Cc1ccc(CNc2ncnc3c2c(-c2ccccc2)cn3-c2cccc(Cl)c2)cc1", "Potency": "active: 18.4 µM"},
      {"smiles": "CCOC(=O)c1sc(Nc2ccc(C)cc2C)nc1C", "Potency": "active: 15.8 µM"},
      {"smiles": "COc1ccc(-c2nc3n(n2)C(c2ccccc2F)C(C(=O)Nc2cccnc2)=C(C)N3)cc1OC", "note": "(stereo not given)", "activity change, negative = growth inhibition": "inactive: -92.2%"},
      {"smiles": "CCCC(Oc1ccc(Br)cc1)c1nc2c3cc(OC)c(OC)cc3nc(=S)n2[nH]1", "note": "(stereo not given)", "Potency": "inconclusive: 29.1 µM [inhibitor, single point]"},
      {"smiles": "CC(=O)c1cccc(NC(=O)C(Sc2ncnc3ccccc23)c2ccccc2)c1", "note": "(stereo not given)", "Potency": "inconclusive: 23.1 µM [inhibitor, single point]"},
      {"smiles": "COc1ccc(N2CCN(C(=O)COC(=O)CCOc3cc(C)ccc3C)CC2)cc1", "Potency": "inconclusive: 20.6 µM [inhibitor, single point]"},
      {"smiles": "Cc1ccccc1OCC(O)Cn1c(=N)n(CCN2CCOCC2)c2ccccc21", "note": "(stereo not given)", "Potency": "inconclusive: 11.6 µM [inhibitor, partial curve, poor fit]", "activity change, negative = growth inhibition": "inconclusive: -30% [inhibitor]"},
      {"smiles": "O=C(N/N=C/c1ccccc1O)C1CC(=O)N(c2ccc(F)cc2)C1", "note": "(stereo not given)", "Potency": "active: 5.8 µM"},
      {"smiles": "Cc1ccc(-c2noc(CN(C3CCCCC3)S(=O)(=O)c3ccc(Cl)cc3)n2)cc1", "Potency": "inconclusive: 29.1 µM [inhibitor, single point]"},
      {"smiles": "Cc1ccc(OCC(=O)c2cc(C)n(-c3cc(C)on3)c2C)c([N+](=O)[O-])n1", "Potency": "inconclusive: 29.1 µM [inhibitor, single point]"},
      {"smiles": "CCOc1cc(OCC)cc(C(=O)NCc2ccco2)c1", "activity change, negative = growth inhibition": "inactive: -12.6%"},
      {"smiles": "COc1ccc(OC)c(NC(=O)COC(=O)/C=C/c2c(C)nn(C3CCS(=O)(=O)C3)c2Cl)c1", "note": "(stereo not given)", "Potency": "inconclusive: 29.1 µM [inhibitor, single point]"},
      {"smiles": "O=C(COc1ccccc1[N+](=O)[O-])Nc1ccccc1N1CCCCC1", "Potency": "inconclusive: 29.1 µM [inhibitor, single point]"},
      {"smiles": "CCOc1ccccc1N(C(=O)Cn1nnnc1-c1ccc(C)o1)C(CC)C(=O)NC(C)(C)C", "note": "(stereo not given)", "Potency": "inconclusive: 18.4 µM [inhibitor, single point]"},
      {"smiles": "COc1ccc(C(C)(C)C)cc1NC(=O)COc1ccc(-c2nnco2)cc1", "Potency": "inconclusive: 20.6 µM [inhibitor, partial curve, poor fit]"},
      {"smiles": "O=C(CC1C(=O)N(c2ccccc2)C(=S)N1c1ccccc1)c1ccccc1", "note": "(stereo not given)", "Potency": "inconclusive: 29.1 µM [inhibitor, single point]"},
      {"smiles": "Cc1onc(-c2cccc(Cl)c2Cl)c1C(=O)O/N=C(\\N)c1ccc([N+](=O)[O-])o1", "Potency": "inconclusive: 29.1 µM [inhibitor, single point]"},
      {"smiles": "CCOC(=O)C(=CNc1ccc(-c2ccco2)c(Cl)c1)C(=O)OCC", "Potency": "active: 16.4 µM"},
      {"smiles": "CCOc1ccc(S(=O)(=O)N2CCOCC2)cc1NC(=O)CN1C(=O)NC2(CCCC2)C1=O", "activity change, negative = growth inhibition": "inactive: -20.5%"},
      {"smiles": "CCOC(=O)Nc1ccc2c3c(cccc13)-c1ccccc1-2", "Potency": "active: 20.6 µM"},
      {"smiles": "COC(=O)C(C(C)=O)C1=C/C(=N\\S(=O)(=O)c2ccc(C)cc2)c2ccccc2C1=O", "note": "(stereo not given)", "Potency": "active: 10 µM"},
      {"smiles": "CC(Oc1cccc(Cl)c1)C(=O)Nc1ccc(S(=O)(=O)N(C)C2CCN(C)CC2)cc1", "note": "(stereo not given)", "Potency": "inconclusive: 18.4 µM [inhibitor, single point]"},
      {"smiles": "Cc1cccc(C)c1NC(=O)CCCSc1nc2ccccc2s1", "Potency": "inconclusive: 20.6 µM [inhibitor, partial curve]"},
      {"smiles": "COC(=O)c1ccc(C(=O)OC)c(NC(=O)N2c3ccccc3Sc3ccccc32)c1", "Potency": "inconclusive: 20.6 µM [inhibitor, single point]"},
      {"smiles": "O=S(=O)(Nc1cccc2cn[nH]c12)c1ccc(F)cc1", "Potency": "inconclusive: 9.2 µM [inhibitor, partial curve]"},
      {"smiles": "COc1ccc(C2CC(=O)c3c([nH]c(C(=O)OC4CCC(C)CC4)c3C)C2)cc1OC", "note": "(stereo not given)", "activity change, negative = growth inhibition": "inactive: -13.9%"},
      {"smiles": "COc1ccc(CC(=O)N/N=C/C=C/c2ccc3c(c2)OCO3)cc1OC", "activity change, negative = growth inhibition": "inconclusive: -33.1% [inhibitor]"},
      {"smiles": "CCN1C(=O)c2ccccc2S(=O)c2ccc(C(=O)N3CCCC3)cc21", "note": "(stereo not given)", "Potency": "inconclusive: 25.9 µM [inhibitor, single point]"},
      {"smiles": "COc1cc(C2NC(=S)NC(c3ccccc3)=C2C(C)=O)ccc1O", "note": "(stereo not given)", "activity change, negative = growth inhibition": "inactive: -20.3%"},
      {"smiles": "COc1ccccc1-c1cc(C(F)(F)F)nc(S(=O)(=O)CCCC(=O)Nc2cccnc2Cl)n1", "Potency": "active: 4.61 µM"},
      {"smiles": "COCCCNC(=O)c1sc2ncccc2c1-n1cccc1", "activity change, negative = growth inhibition": "inactive: -27.6%"},
      {"smiles": "O=S1(=O)CC(N2CCC(Cc3ccccc3)CC2)CN1C1CCCC1", "note": "(stereo not given)", "Potency": "inconclusive: 23.1 µM [inhibitor, single point]"},
      {"smiles": "COc1ccc(/C=C/c2nc(N)nc(-c3ccccc3O)n2)cc1OC", "Potency": "inconclusive: 29.1 µM [inhibitor, single point]"},
      {"smiles": "O=c1c(Cl)c(N2CCCCC2)cnn1-c1nc2ccccc2[nH]1", "Potency": "active: 20.6 µM"},
      {"smiles": "O=C(OCc1cc(=O)n2ccsc2n1)C1(c2ccc(Cl)cc2)CC1", "Potency": "inconclusive: 29.1 µM [inhibitor, single point]"},
      {"smiles": "Cc1ccc2cccc(NC(=O)c3cccc4ccccc34)c2n1", "Potency": "inconclusive: 29.1 µM [inhibitor, single point]"},
      {"smiles": "COc1cc(CNCc2ccc(Br)cc2)cc(OC)c1", "Potency": "inconclusive: 29.1 µM [inhibitor, single point]"},
      {"smiles": "CC1=NN(C(=O)Cc2ccc([N+](=O)[O-])cc2)C(O)(c2ccccc2)C1", "note": "(stereo not given)", "Potency": "active: 5.17 µM"},
      {"smiles": "CN1CCN(c2ncnc3c2cnn3-c2ccc(Cl)cc2)CC1", "Potency": "inconclusive: 29.1 µM [inhibitor, single point]"},
      {"smiles": "CCN(CC)c1ccc(-c2nc(-c3ccncc3)no2)cc1[N+](=O)[O-]", "Potency": "active: 14.6 µM"},
      {"smiles": "Cc1sc(NC(=O)c2cccs2)nc1-c1ccccc1", "Potency": "inconclusive: 29.1 µM [inhibitor, single point]"},
      {"smiles": "COc1ccc(NCc2ccccc2-c2nnc(-c3ccccc3)o2)cc1Cl", "activity change, negative = growth inhibition": "inactive: -15.8%"},
      {"smiles": "O=C(N/N=C/c1cccs1)C1COc2ccccc2O1", "note": "(stereo not given)", "Potency": "active: 16.4 µM"},
      {"smiles": "COCCNc1nnc(SCC(=O)NNC(=O)c2ccccc2)s1", "Potency": "inconclusive: 16.4 µM [inhibitor, single point]"},
      {"smiles": "CC1(C)N=C(SCC(=O)Nc2ccc(Cl)cc2)C(c2ccccc2)=N1", "Potency": "inconclusive: 23.1 µM [inhibitor, single point]"},
      {"smiles": "CCOc1ccc(-c2cc(C(=O)NCc3cc(OC)cc(OC)c3)[nH]n2)c(C)c1", "Potency": "inconclusive: 29.1 µM [inhibitor, single point]"},
      {"smiles": "O=C(OCC(=O)N1CCc2ccccc21)c1c2c(nc3ccccc13)CCCC2", "Potency": "active: 23.1 µM"},
      {"smiles": "Cc1sc2nc(SCC(=O)N(CCO)CCO)n(C3CCCCC3)c(=O)c2c1C", "activity change, negative = growth inhibition": "inactive: -24.2%"},
      {"smiles": "O=C(Nc1cccc(C(F)(F)F)c1)C(=O)N1CCCCC1", "activity change, negative = growth inhibition": "inactive: -5.98%"},
      {"smiles": "CN1C(=O)Cc2cc(S(=O)(=O)NCc3c(F)cccc3Cl)ccc21", "activity change, negative = growth inhibition": "inactive: 3.71%"},
      {"smiles": "O[C@@H](CNC[C@H](O)[C@H]1CCc2cc(F)ccc2O1)[C@@H]1CCc2cc(F)ccc2O1", "Potency": "active: 4.22 µM"},
      {"smiles": "CCOc1ccccc1C(=O)N(Cc1ccc(N(C)C)cc1)CC1CCCO1", "note": "(stereo not given)", "Potency": "inconclusive: 20.6 µM [inhibitor, single point]"}
    ]}
  ]
}
